In patent publication US6562588B2, “Sialidase and recombinant cell lines” (Genentech, Inc., priority 1993, dated 2003):

Legend:
CHO cell sialidase [1] = target: T1, CHO cell sialidase (Cricetulus griseus, UniProt Q64393); experiment: Sialidase activity toward gangliosides and colominic acid (thiobarbiturate assay); type: biochemical, Chinese hamster; set-up: The sialidase described is purified exclusively from the cell culture fluid of a single production cell line (CHO 14.16); endogenous in cells; host or cells: CHO 14.16 cells (serum-free culture fluid); details: for Hydrolysis of ganglioside by the sialidase (in words): cholic acid as solubilizing agent; for Relative Activity: substrates at 4 mM, pH 6.0, initial rate, cholic acid (0.05%) with lipid substrates, relative to α-2,3 sialyllactose
Protocol: Sialidase assays with natural substrates: When natural substrates are tested with the purified enzyme, the amount of released sialic acid is measured using the thiobarbituric acid assay as modified by Uchida [Uchida et al. J. Biochem., 82:1425 (1977)] using sialic acid as standard. The amount of sialic acid in control samples, which include a complete assay mixture incubated without added enzyme is subtracted from each determination. all samples are cleared by centrifugation (1,000×G. 10 min) prior to determining the absorbance at 540 nm.
Some gangliosides are degraded by the sialidase, TABLE III; although these substrates require the presence of cholic acid as a solubilizing agent in the assay for optimal activity.

CHO cell sialidase [2] = target: T1, CHO cell sialidase; experiment: Sialidase kinetic constants with soluble sialylglycoconjugate substrates; type: biochemical, Chinese hamster; set-up: The sialidase described is purified exclusively from the cell culture fluid of a single production cell line (CHO 14.16); endogenous in cells; host or cells: CHO 14.16 cells (serum-free culture fluid); details: apparent value; standard assay conditions; average of duplicates

T1 sequence (Q64393 whole entry): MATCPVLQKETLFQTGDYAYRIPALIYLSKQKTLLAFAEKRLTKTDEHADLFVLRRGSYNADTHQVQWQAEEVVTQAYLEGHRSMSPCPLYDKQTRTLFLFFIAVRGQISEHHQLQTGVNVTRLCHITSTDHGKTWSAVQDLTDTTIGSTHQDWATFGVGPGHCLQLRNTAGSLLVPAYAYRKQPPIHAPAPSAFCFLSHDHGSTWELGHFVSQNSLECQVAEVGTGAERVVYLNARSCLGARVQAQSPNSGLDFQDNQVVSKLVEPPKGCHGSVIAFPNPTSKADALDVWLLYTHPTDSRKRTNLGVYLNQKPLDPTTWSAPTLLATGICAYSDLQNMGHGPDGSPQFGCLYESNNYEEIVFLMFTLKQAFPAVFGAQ

Hydrolysis of ganglioside by the sialidase (in words) (CHO cell sialidase [1])	Relative Activity (CHO cell sialidase [1])	Km (CHO cell sialidase [2])	Vmax (CHO cell sialidase [2])	Compound
hydrolyzed at comparable rates	29%			||NeuAc-LacCer [GM3]
hydrolyzed at comparable rates	23%			IV^3NeuAc, ||^3(NeuAc)2-GgOse4Cer [GT1b]
not substrates				||^3NeuAc-GgOse3Cer [GM2]
not substrates				||^3NeuAc-GgOse4Cer [GM1]

Continued, compound first:

Compound	Hydrolysis of ganglioside by the sialidase (in words) (CHO cell sialidase [1])	Relative Activity (CHO cell sialidase [1])	Km (CHO cell sialidase [2])	Vmax (CHO cell sialidase [2])
IV^3NeuAc, ||^3NeuAc-GgOse4Cer [GD1a]	hydrolyzed at comparable rates	21%		
CC(=O)N[C@H]1[C@H]([C@H](O)[C@H](O)CO)O[C@@](O[C@H]2[C@@H](O)[C@@H](CO)O[C@@H](O[C@H]3[C@H](O)[C@@H](O)C(O)O[C@@H]3CO)[C@@H]2O)(C(=O)O)C[C@@H]1O (stereo partly drawn) [α-2,3 Sialyllactose]		100%	1300 µM	16 µmol/min/mg
CC(=O)N[C@H]1[C@H]([C@H](O)[C@H](O)CO)O[C@@](OC[C@H]2O[C@@H](O[C@H]3[C@H](O)[C@@H](O)C(O)O[C@@H]3CO)[C@H](O)[C@@H](O)[C@H]2O)(C(=O)O)C[C@@H]1O (stereo partly drawn) [α-2,6 Sialyllactose]			1200 µM	4 µmol/min/mg
Transferrin: isolated from human serum, contains only 2,6 linked sialic acid residues; glycoprotein substrate			4100 µM	2 µmol/min/mg
||^3(NeuAc)2-GgOse4Cer [GD1b]	not substrates			
Colominic Acid		4%		
CC(=O)N[C@H]1[C@H]([C@H](O)[C@H](O)CO)O[C@@](Oc2ccc3c(C)cc(=O)oc3c2)(C(=O)O)C[C@@H]1O [4-MU-Neu5Ac, (4-methylumbelliferyl-5-acetamido-3,5-dideoxy-D-glycero-α-D-galacto-nonulopyranosid)onic acid]			400 µM	18 µmol/min/mg
CC(=O)N[C@H]1[C@H]([C@H](O)[C@H](O)CO)O[C@@](O[C@H](CO)[C@@H](O)[C@@H]2OC(O)(C(=O)O)C[C@H](O)[C@H]2NC(C)=O)(C(=O)O)C[C@@H]1O (stereo partly drawn) [Sialic acid dimer]			3400 µM	11 µmol/min/mg
